Laboratory results: the supplement of paper PMC8728848
The list shows a part of the results.

How the values were obtained:
Experiment in all cases: glycan array binding signal (z-score within array); higher = stronger binding
Settings in all cases: glycan notation: IUPAC condensed, linker removed
Fuc(a1-3)GlcNAc = target: Fuc(a1-3)GlcNAc
How it was run: (§1)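 Arrays were curated from the Consortium for Functional Glycomics database, 3228 in total, and kept only where the protein sequence was available. Binding is expressed as a within-array Z-score. This score was averaged across arrays of the same protein sequence at different concentrations or buffers and across linkers, and negative values can be read as non-binding.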

[1] = target: Fuc(a1-3)[Gal(b1-4)]Glc6S
How it was run: as §1

[2] = target: Fuc(a1-3)[Gal(b1-4)]GlcNAc
How it was run: as §1

[3] = target: Fuc(a1-3)[Gal(b1-4)]GlcNAc(b1-2)Man
How it was run: as §1

[4] = target: Fuc(a1-3)[Gal(b1-4)]GlcNAc(b1-2)Man(a1-3)[Fuc(a1-3)[Gal(b1-4)]GlcNAc(b1-2)Man(a1-6)]Man(b1-4)GlcNAc(b1-4)GlcNAc
How it was run: as §1

[5] = target: Fuc(a1-3)[Gal(b1-4)]GlcNAc(b1-2)Man(a1-3)[Fuc(a1-3)[Gal(b1-4)]GlcNAc(b1-2)Man(a1-6)]Man(b1-4)GlcNAc(b1-4)[Fuc(a1-6)]GlcNAc
How it was run: as §1

[6] = target: Fuc(a1-3)[Gal(b1-4)]GlcNAc(b1-3)Gal(b1-3)[Fuc(a1-4)]GlcNAc
How it was run: as §1

[7] = target: Fuc(a1-3)[Gal(b1-4)]GlcNAc(b1-3)Gal(b1-4)[Fuc(a1-3)]GlcNAc
How it was run: as §1

[8] = target: Fuc(a1-3)[Gal(b1-4)]GlcNAc(b1-3)Gal(b1-4)[Fuc(a1-3)]GlcNAc(b1-3)Gal(b1-4)[Fuc(a1-3)]GlcNAc
How it was run: as §1

[9] = target: Fuc(a1-3)[Gal(b1-4)]GlcNAc(b1-3)GalNAc
How it was run: as §1

[10] = target: Fuc(a1-3)[Gal(b1-4)]GlcNAc(b1-6)GalNAc
How it was run: as §1

[11] = target: Fuc(a1-3)[Gal(b1-4)]GlcNAc(b1-6)[Gal(b1-3)GlcNAc(b1-3)]Gal(b1-4)Glc
How it was run: as §1

[12] = target: Fuc(a1-3)[Gal(b1-4)]GlcNAc6S
How it was run: as §1

[13] = target: Fuc(a1-3)[Gal3S(b1-4)]Glc
How it was run: as §1

[14] = target: Fuc(a1-3)[Gal3S(b1-4)]GlcNAc
How it was run: as §1

[15] = target: Fuc(a1-3)[Gal3S(b1-4)]GlcNAc6S
How it was run: as §1

[16] = target: Fuc(a1-3)[GalNAc(b1-4)]GlcNAc
How it was run: as §1

[17] = target: Fuc(a1-3)[GalNAc(b1-4)]GlcNAc6S
How it was run: as §1

Fuc(a1-4)GlcNAc = target: Fuc(a1-4)GlcNAc
How it was run: as §1

Fuc(b1-3)GlcNAc = target: Fuc(b1-3)GlcNAc
How it was run: as §1

Gal(a1-2)Gal = target: Gal(a1-2)Gal
How it was run: as §1

Gal(a1-3)Gal = target: Gal(a1-3)Gal
How it was run: as §1

Gal(a1-3)Gal(b1-3)GlcNAc = target: Gal(a1-3)Gal(b1-3)GlcNAc
How it was run: as §1

[18] = target: Gal(a1-3)Gal(b1-3)GlcNAc(b1-2)Man
How it was run: as §1

[19] = target: Gal(a1-3)Gal(b1-3)GlcNAc(b1-2)Man(a1-3)[Gal(a1-3)Gal(b1-3)GlcNAc(b1-2)Man(a1-6)]Man(b1-4)GlcNAc(b1-4)GlcNAc
How it was run: as §1

[20] = target: Gal(a1-3)Gal(b1-3)GlcNAc(b1-3)GalNAc
How it was run: as §1

[21] = target: Gal(a1-3)Gal(b1-3)GlcNAc(b1-6)GalNAc
How it was run: as §1

[22] = target: Gal(a1-3)Gal(b1-3)[Fuc(a1-4)]GlcNAc(b1-2)Man(a1-3)[Gal(a1-3)Gal(b1-3)[Fuc(a1-4)]GlcNAc(b1-2)Man(a1-6)]Man(b1-4)GlcNAc(b1-4)GlcNAc
How it was run: as §1

Gal(a1-3)Gal(b1-4)Glc = target: Gal(a1-3)Gal(b1-4)Glc
How it was run: as §1

Gal(a1-3)Gal(b1-4)GlcNAc = target: Gal(a1-3)Gal(b1-4)GlcNAc
How it was run: as §1

[23] = target: Gal(a1-3)Gal(b1-4)GlcNAc(b1-2)Man
How it was run: as §1

[24] = target: Gal(a1-3)Gal(b1-4)GlcNAc(b1-2)Man(a1-3)[Gal(a1-3)Gal(b1-4)GlcNAc(b1-2)Man(a1-6)]Man(b1-4)GlcNAc(b1-4)GlcNAc
How it was run: as §1

[25] = target: Gal(a1-3)Gal(b1-4)GlcNAc(b1-3)GalNAc
How it was run: as §1

[26] = target: Gal(a1-3)Gal(b1-4)GlcNAc(b1-6)GalNAc
How it was run: as §1

[27] = target: Gal(a1-3)Gal(b1-4)[Fuc(a1-3)]GlcNAc
How it was run: as §1

[28] = target: Gal(a1-3)Gal(b1-4)[Fuc(a1-3)]GlcNAc(b1-2)Man(a1-3)[Gal(a1-3)Gal(b1-4)[Fuc(a1-3)]GlcNAc(b1-2)Man(a1-6)]Man(b1-4)GlcNAc(b1-4)GlcNAc
How it was run: as §1

Gal(a1-3)GalNAc = target: Gal(a1-3)GalNAc
How it was run: as §1

[29] = target: Gal(a1-3)[Gal(a1-4)]Gal(b1-4)GlcNAc
How it was run: as §1

[30] = target: Gal(a1-4)Gal(b1-3)GlcNAc(b1-2)Man(a1-3)[Gal(a1-4)Gal(b1-3)GlcNAc(b1-2)Man(a1-6)]Man(b1-4)GlcNAc(b1-4)GlcNAc
How it was run: as §1

Gal(a1-4)Gal(b1-4)Glc = target: Gal(a1-4)Gal(b1-4)Glc
How it was run: as §1

Gal(a1-4)Gal(b1-4)GlcNAc = target: Gal(a1-4)Gal(b1-4)GlcNAc
How it was run: as §1

[31] = target: Gal(a1-4)Gal(b1-4)GlcNAc(b1-2)Man(a1-3)[Gal(a1-4)Gal(b1-4)GlcNAc(b1-2)Man(a1-6)]Man(b1-4)GlcNAc(b1-4)GlcNAc
How it was run: as §1

[32] = target: Gal(a1-4)Gal(b1-4)GlcNAc(b1-3)Gal(b1-4)Glc
How it was run: as §1

Gal(a1-4)GlcNAc = target: Gal(a1-4)GlcNAc
How it was run: as §1

Gal(a1-6)Glc = target: Gal(a1-6)Glc
How it was run: as §1

B1: rEtpA (Escherichia coli) (protein)
chain: MNRIYKLKFDKRRNELVVVSEITTGVGNAKATGSVEGEKSPRRGVRAMALSLLSGMMIMAHPAMSANLPTGGQIVAGSGSIQTPSGNQMNIHQNSQNMVANWNSFDIGKGNTVQFDQPSSSAVALNRVVGGGESQIMGNLKANGQVFLVNPNGVLFGEGASVSTSGFVASTRDIKNDDFMNRRYTFSGGQKAGAAIVNQGELTTNAGGYIVLAADRVSNSGTIRTPGGKTVLAASERITLQLDNGGLMSVQVTGDVVNALVENRGLVSARDGQVYLTALGRGMLMNTVLNVSGVVEASGMHRQDGNIVLDGGDSGVVHLSGTLQADNASGQGGKVVVQGKNILLDKGSNITATGGQGGGEVYVGGGWQGKDSNIRNADKVVMQGGARIDVSATQQGNGGTAVLWSDSYTNFHGQISAKGGETGGNGGRVETSSHGNLQAFGTVSASAKKGKAGNWLLDSADITIVNGSNVSKTETTQSPPHTQFAPTAAGSAVSNTSINNRLNNGTSVTILTHRTRTGTAQGGNITVNAAINKSNGSDVNLTLQAGGNITVNNSITSTEGKLNVNLSGARTSNGSITISNNANITTNGGDITVGTTNTSNRVNISINNTTLNASNGNIQLTGTGTDSGILFAGNNRLTASNIALTGNSTSGNAINLTGTATLNATNNITLTGSSTSGNAINLKGNNTLTASNITLTGESTSGNAINLTDTTGTTTLNATNNITMQGTRVQIKHSNITAGNFALNATVAGSEISNTTLTATNNINLAAKTNSASSGVYLKDARITSTNGSITANGTATANGKATHLDGNVTLNASNGRIKLTGNGHGSASGILFAGNNRLTASNIALTGNSTSGNAINLTGTATLNATNDITLTGSSTSGNAINLTGTATLNATNNITLTGSSTSGNAINLKGNNTLTASNITLTGESTSGNAINLTDTTGTTTLNATNNITMQGTRVQIKHSNITAGNFALNATVAGSEISNTTLTATNNINLAAKTNSASSGVYLKDARITSTNGSITANGTATANGKATHLDGNVTLNASNGRIKLTGNGHGSASGILFAGNNRLTASNIALTGNSTSGNAINLTGTATLNATNDITLTGSSTSGNAINLTGTATLNATNNITLTGSSTSGNAINLKGNNTLTASNITLTGESTSGNAINLTDTTGTTTLNATNNITMQGTRVQIKHSNITAGNFALNATVAGSEISNTTLTATNNINLAAKTNSASSGVYLKDARITSTNGSITANGTATANGKATHLDGNVTLNASNGRIKLTGNGHGSASGILFAGNNRLTASNIALTGNSTSGNAINLTGTATLNATNDITLTGSSTSGNAINLTGTATLNATNNITLTGSSTSGNAINLKGNNTLTASNITLTGESTSGNAINLTDTTGTTTLNATNNITMQGTRVQIKHSNITAGNFALNATVAGSEISNTTLTATNNINLAAKTNSASSGVYLKDARITSTNGSITTNGTATANGKATHLDGNVTLNASNGRIKLTGNGHGSASGILFAGNNRLTASNIALTGNSTSGNAINLTGTATLNATNDITLTGSSTSGNAINLTGTATLNATNNITLTGSSTSGNAINLKGNNTLTASNITLTGESTSGNAINLTDTTGTTTLNATNNITMQGTRVQIKHSNITAGNFALNATVAGSEISNTTLTATNNINLAAKTNSASSGVYLKDARITSTNGSITANGTAPANDNATYLDGNVTLNASNGSIKLTGNGNGSTSGILFAGNNTLTASNITLTGNSEVYWQKLGPEQKLISEEDLNSAVDHHHHHH
- glycan array binding signal (z-score) (Fuc(a1-3)GlcNAc): 0.079
- glycan array binding signal (z-score) [1]: 0.311
- glycan array binding signal (z-score) [2]: -0.325
- glycan array binding signal (z-score) [3]: -0.351
- glycan array binding signal (z-score) [4]: -0.293
- glycan array binding signal (z-score) [5]: -0.085
- glycan array binding signal (z-score) [6]: -0.135
- glycan array binding signal (z-score) [7]: 0.087
- glycan array binding signal (z-score) [8]: -0.316
- glycan array binding signal (z-score) [9]: -0.358
- glycan array binding signal (z-score) [10]: -0.192
- glycan array binding signal (z-score) [11]: -0.355
- glycan array binding signal (z-score) [12]: 0.012
- glycan array binding signal (z-score) [13]: 0.277
- glycan array binding signal (z-score) [14]: -0.102
- glycan array binding signal (z-score) [15]: -0.414
- glycan array binding signal (z-score) [16]: -0.335
- glycan array binding signal (z-score) [17]: -0.388
- glycan array binding signal (z-score) (Fuc(a1-4)GlcNAc): 2.8
- glycan array binding signal (z-score) (Fuc(b1-3)GlcNAc): -0.083
- glycan array binding signal (z-score) (Gal(a1-2)Gal): 0.054
- glycan array binding signal (z-score) (Gal(a1-3)Gal): 2.11
- glycan array binding signal (z-score) (Gal(a1-3)Gal(b1-3)GlcNAc): 1.87
- glycan array binding signal (z-score) [18]: -0.149
- glycan array binding signal (z-score) [19]: 0.182
- glycan array binding signal (z-score) [20]: -0.382
- glycan array binding signal (z-score) [21]: -0.331
- glycan array binding signal (z-score) [22]: 1.23
- glycan array binding signal (z-score) (Gal(a1-3)Gal(b1-4)Glc): -0.179
- glycan array binding signal (z-score) (Gal(a1-3)Gal(b1-4)GlcNAc): 0.097
- glycan array binding signal (z-score) [23]: -0.309
- glycan array binding signal (z-score) [24]: 0.598
- glycan array binding signal (z-score) [25]: -0.358
- glycan array binding signal (z-score) [26]: -0.408
- glycan array binding signal (z-score) [27]: 0.013
- glycan array binding signal (z-score) [28]: -0.416
- glycan array binding signal (z-score) (Gal(a1-3)GalNAc): -0.311
- glycan array binding signal (z-score) [29]: 0.009
- glycan array binding signal (z-score) [30]: 0.47
- glycan array binding signal (z-score) (Gal(a1-4)Gal(b1-4)Glc): -0.276
- glycan array binding signal (z-score) (Gal(a1-4)Gal(b1-4)GlcNAc): -0.243
- glycan array binding signal (z-score) [31]: 0.288
- glycan array binding signal (z-score) [32]: -0.072
- glycan array binding signal (z-score) (Gal(a1-4)GlcNAc): 0.065
- glycan array binding signal (z-score) (Gal(a1-6)Glc): 0.751
